Data published in the supplement of paper PMC4166925.
± gives the standard deviation of the averaged measurements. The full ranking holds about 33,000 sequences; the median of “E-score (dimensionless, -0.5 to 0.5)” is about -0.046, and the highest 2% start at about 0.36. This is one part of the list.

The sequences below were run on T1, SpTbr T-box DNA-binding domain (GST fusion) (assay: PBM E-score of 8-mer (E-score (dimensionless, -0.5 to 0.5)); Tbr is Tbrain of the sea star Patiria miniata (Pm) or the sea urchin Strongylocentrotus purpuratus (Sp); higher = stronger binding preference; most listed sequences are background and not binding sites). Settings: the construct has about 5 more residues each side.
T1 sequence: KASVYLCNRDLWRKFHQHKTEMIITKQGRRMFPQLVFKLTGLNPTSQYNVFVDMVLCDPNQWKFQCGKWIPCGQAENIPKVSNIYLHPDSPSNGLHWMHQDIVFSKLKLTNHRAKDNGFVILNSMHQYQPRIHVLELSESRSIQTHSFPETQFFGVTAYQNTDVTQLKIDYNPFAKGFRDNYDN
Protocol: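 Universal protein-binding microarray (Agilent AMADID 016060, 60-bp probes with a 35-bp variable region) incubated with 200 nM GST-fused Strongylocentrotus purpuratus Tbr T-box DNA-binding domain (residues 362-554) in PBS pH 7.5. Scored for every ungapped 8-mer (given with its reverse complement) as E-score (range -0.5 to 0.5; >0.45 counts as bound) and Z-score of median probe intensity. Two replicate arrays (datasets 1 and 2).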
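Note: protein at 200 nM in PBS on universal double-stranded arrays.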

First: GCCTCAAA
Second: AAAGGCGT
The “PBM E-score of 8-mer” value of the first is lower: -0.23 ± 0.061 for the first, 0.262 ± 0.049 for the second.

Compared with CTGCAGGC, GCTAAACA is higher in “PBM E-score of 8-mer” value: -0.12 ± 0.034 for the first, -0.0537 ± 0.019 for the second.

First: CTATGCCA
Second: GGTTATAA
The “PBM E-score of 8-mer” value of the first is higher: 0.0317 ± 0.017 for the first, -0.0244 ± 0.035 for the second.

Compared with CAACCACG, CCTTACCC is lower in “PBM E-score of 8-mer” value: 0.149 ± 0.067 for the first, -0.191 ± 0.026 for the second.

First: CTTCTATA
Second: CATACGAG
The “PBM E-score of 8-mer” value of the first is lower: -0.219 ± 0.0024 for the first, -0.133 ± 0.0046 for the second.

AATACCCT and GCGCAGGA are within error of each other in “PBM E-score of 8-mer” value: -0.038 ± 0.026 for the first, -0.0868 ± 0.053 for the second.

AAAGCTTG and GGGTTCTA are within error of each other in “PBM E-score of 8-mer” value: -0.15 ± 0.055 for the first, -0.0635 ± 0.067 for the second.

Going from AAAAGCCC to AGTGAGGA, the “PBM E-score of 8-mer” value rises from -0.281 ± 0.051 to 0.246 ± 0.028.

Going from AAGGTTGT to CCCGCACA, the “PBM E-score of 8-mer” value rises from 0.0877 ± 0.038 to 0.207 ± 0.038.

TTAACTAA and AACCTGGG are the same in “PBM E-score of 8-mer” value: -0.139 ± 0.062 for the first, -0.139 ± 0.017 for the second.

Compared with GCAAAGTA, TCCCCACA is higher in “PBM E-score of 8-mer” value: -0.108 ± 0.032 for the first, 0.225 ± 0.033 for the second.

Going from ACGGATCA to CCGGTATA, the “PBM E-score of 8-mer” value falls from 0.0853 ± 0.067 to -0.0723 ± 0.05.

AAATTCTA and GCTTTGCC are within error of each other in “PBM E-score of 8-mer” value: -0.145 ± 0.056 for the first, -0.108 ± 0.066 for the second.

First: AGCGGCGA
Second: AGTCAATA
The “PBM E-score of 8-mer” value of the first is higher: 0.108 ± 0.049 for the first, -0.191 ± 0.058 for the second.

First: GCTTCCAA
Second: CCCACCCG
The “PBM E-score of 8-mer” value of the first is lower: -0.263 ± 0.025 for the first, 0.0685 ± 0.054 for the second.

Compared with AACTTCGT, GTTTTTGA is higher in “PBM E-score of 8-mer” value: -0.129 ± 0.032 for the first, -0.0187 ± 0.077 for the second.

ATGTACTC and ACCCAATG are within error of each other in “PBM E-score of 8-mer” value: -0.0866 ± 0.027 for the first, -0.132 ± 0.07 for the second.

Compared with ACGGCATC, GTTGTGCA is higher in “PBM E-score of 8-mer” value: -0.176 ± 0.021 for the first, 0.0814 ± 0.0043 for the second.

Compared with CCGGTGGC, AAGACGGT is lower in “PBM E-score of 8-mer” value: -0.0144 ± 0.029 for the first, -0.148 ± 0.051 for the second.

First: GCCTTCTA
Second: AGCCTCAA
The “PBM E-score of 8-mer” value of the first is higher: 0.0679 ± 0.0026 for the first, -0.141 ± 0.073 for the second.

First: ACCTTATC
Second: ACACCTGA
The “PBM E-score of 8-mer” value of the first is lower: 0.0756 ± 0.077 for the first, 0.4627 ± 0.0023 for the second.

Compared with ACAGGCAG, GTTAGCGA is higher in “PBM E-score of 8-mer” value: -0.0306 ± 0.038 for the first, 0.297 ± 0.0094 for the second.

AAGGAATC and ATTACCCG are within error of each other in “PBM E-score of 8-mer” value: -0.123 ± 0.0056 for the first, -0.0835 ± 0.042 for the second.

Going from ATGCTTCC to ACACGGCA, the “PBM E-score of 8-mer” value rises from -0.1542 ± 0.0011 to 0.0945 ± 0.05.

Compared with CTCCGCTC, TCAGCTCA is higher in “PBM E-score of 8-mer” value: -0.238 ± 0.016 for the first, -0.0289 ± 0.0093 for the second.

Going from CACTGACA to CTGTTCAC, the “PBM E-score of 8-mer” value rises from 0.233 ± 0.029 to 0.315 ± 0.012.

First: CATCAATG
Second: CTCCGGTA
The “PBM E-score of 8-mer” value of the first is higher: 0.0357 ± 0.0092 for the first, -0.126 ± 0.0032 for the second.

First: AAAGTCTG
Second: GCAGGGGC
The “PBM E-score of 8-mer” value of the first is higher: -0.0833 ± 0.0044 for the first, -0.13 ± 0.0028 for the second.

AGAAACCG and GTCTGATA are within error of each other in “PBM E-score of 8-mer” value: -0.0862 ± 0.051 for the first, -0.105 ± 0.052 for the second.

Compared with TATTGGAA, ACTTTACA is higher in “PBM E-score of 8-mer” value: -0.282 ± 0.012 for the first, 0.204 ± 0.013 for the second.

Compared with ATTGCCGG, CAGCGCAC is higher in “PBM E-score of 8-mer” value: 0.0152 ± 0.0069 for the first, 0.138 ± 0.047 for the second.

Going from AGGCTCGG to CGCTCTAC, the “PBM E-score of 8-mer” value falls from -0.0308 ± 0.0026 to -0.123 ± 0.037.

First: CGGATAAA
Second: CCCGACTA
The “PBM E-score of 8-mer” value of the first is lower: -0.209 ± 0.02 for the first, 0.111 ± 0.058 for the second.

Going from TATGATAA to AAACGCAT, the “PBM E-score of 8-mer” value falls from -0.00343 ± 0.017 to -0.185 ± 0.034.

Compared with TCGGGAAA, GTCTAATA is higher in “PBM E-score of 8-mer” value: -0.124 ± 0.027 for the first, -0.0116 ± 0.0076 for the second.

Going from ATAATCAA to CCATCCGA, the “PBM E-score of 8-mer” value falls from 0.0106 ± 0.094 to -0.284 ± 0.087.

Compared with ATTTGACA, GCAATTTA is lower in “PBM E-score of 8-mer” value: 0.304 ± 0.012 for the first, -0.0618 ± 0.055 for the second.

Compared with AGAGTGCC, CGGCGGAG is lower in “PBM E-score of 8-mer” value: 0.0261 ± 0.019 for the first, -0.11 ± 0.089 for the second.

First: CTAAGGGC
Second: GATCGCTA
The “PBM E-score of 8-mer” value of the first is lower: 0.0508 ± 0.014 for the first, 0.136 ± 0.022 for the second.

GCACTGGA and AAAGTAGA are within error of each other in “PBM E-score of 8-mer” value: -0.0463 ± 0.011 for the first, -0.0436 ± 0.055 for the second.

First: CTCGACGA
Second: CCTGCTCG
The “PBM E-score of 8-mer” value of the first is higher: 0.0119 ± 0.036 for the first, -0.0929 ± 0.043 for the second.

Compared with GCCAATCC, CTCAGGGA is lower in “PBM E-score of 8-mer” value: -0.0232 ± 0.048 for the first, -0.142 ± 0.043 for the second.

ATGCGGCA and ACGTATAG are within error of each other in “PBM E-score of 8-mer” value: 0.0699 ± 0.0036 for the first, -0.0367 ± 0.13 for the second.
